Measured values as given in patent publication US9457029B2, “Treatment of genotyped diabetic patients with DPP-IV inhibitors such as linagliptin” (Boehringer Ingelheim International GmbH, priority 2009, dated 2016).

Tested on: Japanese patients with type 2 diabetes mellitus
Experiment: 12-week placebo-controlled study of linagliptin monotherapy in Japanese patients
Assay type: in vivo, human
Conditions: for FPG, difference of adjusted mean change from baseline vs. PBO: after 12 weeks
Experimental: Of those; 9.4%, 8.8% and 10.0%, respectively, are assessed as being drug-related. […] Body weight is unchanged with both LI 5 mg and 10 mg, −0.39 and −0.06 kg, respectively, which is not sigificantly different vs. PBO (−0.04 kg).

CC#CCn1c(N2CCC[C@@H](N)C2)nc2c1c(=O)n(Cc1nc(C)c3ccccc3n1)c(=O)n2C [linagliptin, 1-[(4-methyl-quinazolin-2-yl)methyl]-3-methyl-7-(2-butyn-1-yl)-8-(3-(R)-amino-piperidin-1-yl)-xanthine]
insulin secretion as indicated by changes in the proinsulin/insulin ratio (LI 5 mg and 10 mg, 12 weeks): significantly improves insulin secretion
FPG, difference of adjusted mean change from baseline vs. PBO (LI 5 mg): -19.7 mg/dL
difference of adjusted mean change from baseline in HbA1c vs. PBO (LI 10 mg qd, week 12): −0.88%
body weight change (LI 10 mg, 12 weeks): -0.06 kg
proportion of patients whose HbA1c levels lower by at least 0.5% (LI 10 mg, 12 weeks): 59.9%
FPG, difference of adjusted mean change from baseline vs. PBO (LI 10 mg): -20.4 mg/dL
